# According to paper PMC6919601, “Identification of Plasmodium dipeptidyl aminopeptidase allosteric inhibitors by high throughput screening” (PLoS ONE, 2019):
# In all, about 110,000 compounds went through this assay and about 230 (0.21%) showed an effect of 50% or more. This is one part of the list.
# Molecular target: DPAP1 (Plasmodium falciparum, UniProt Q8IIJ9)
# Experiment: primary screen, percent inhibition; read by cleavage of a fluorogenic dipeptide substrate; higher = more effect of the substance
# Design: species or system P. falciparum D10 trophozoite lysates; single well
# 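Note: 30 min substrate incubation versus DMSO and 10 µM JCP410 controls.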
# DPAP1, sequence (Q8IIJ9 whole entry, looked up): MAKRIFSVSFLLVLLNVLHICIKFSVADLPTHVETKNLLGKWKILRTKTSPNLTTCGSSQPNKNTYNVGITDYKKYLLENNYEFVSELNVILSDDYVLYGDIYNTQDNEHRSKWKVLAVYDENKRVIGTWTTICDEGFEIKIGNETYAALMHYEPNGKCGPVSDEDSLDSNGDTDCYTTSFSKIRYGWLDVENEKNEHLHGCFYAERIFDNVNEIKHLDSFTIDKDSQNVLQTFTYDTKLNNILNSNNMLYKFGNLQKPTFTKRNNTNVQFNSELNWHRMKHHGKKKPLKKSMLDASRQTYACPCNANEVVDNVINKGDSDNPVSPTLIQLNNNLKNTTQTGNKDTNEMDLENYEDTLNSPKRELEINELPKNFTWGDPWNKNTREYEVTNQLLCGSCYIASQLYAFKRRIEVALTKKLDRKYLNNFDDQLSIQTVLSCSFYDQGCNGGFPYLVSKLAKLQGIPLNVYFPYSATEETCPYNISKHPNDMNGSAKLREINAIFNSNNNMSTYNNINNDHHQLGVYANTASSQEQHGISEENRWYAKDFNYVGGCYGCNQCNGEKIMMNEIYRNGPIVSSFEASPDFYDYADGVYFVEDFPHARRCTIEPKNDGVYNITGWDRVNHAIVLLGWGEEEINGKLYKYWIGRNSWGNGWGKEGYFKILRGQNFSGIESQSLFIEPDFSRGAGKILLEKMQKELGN
row,Structure (SMILES),% Inhibition @ 10 uM
1,CCOc1ccc(NC(=O)Cc2ccc(OC)cc2)cc1,-1.77%
2,Cc1cc(NC(=O)c2cc(-c3ccco3)on2)no1,-5.09%
3,CCOc1ccc(CNc2nc3ccc(Cl)cc3n3cnnc23)cc1OC,-0.522%
4,CC(C)NC(=O)c1cc(-c2ccc3c(c2)OCO3)nc2ccccc12,-11.8%
5,c1ccc(C2CCN(c3ncnc4c3nc3n4CCCCC3)C2)cc1 (stereo not shown),-0.0255%
6,CCN(CC)S(=O)(=O)N1CCC(C(=O)NCc2ccc(C)cc2)CC1,-0.519%
7,CCN(CC)CCCNc1oc(/C=C/c2cc(OC)c(OC)c(OC)c2)nc1C#N,-6.29%
8,CSC(=O)NC12CC3CC(C1)C(C)C(C3)C2 (stereo not shown),4.22%
9,CCN(CC)c1ccc(/C=C2/SC(N3CCCCC3)=NC2=O)cc1,13%
10,COc1ccc(-c2ccc3c(N)c(C(=O)Nc4cc(OC)ccc4OC)sc3n2)cc1,-0.312%
11,COc1cc(Br)cc2c1Oc1nc(-c3ccccc3)nc(SCC(N)=O)c1C2,-2.92%
12,CCc1ccc(C2CC(=O)NC3=C2C(=O)CC(c2cc(OC)ccc2OC)C3)cc1 (stereo not shown),3.67%
13,O=C(CN1C(=O)c2ccccc2C1=O)N(Cc1ccccc1)Cc1ccccc1,-2.87%
14,CC1=CC=CC2=NC(C(F)(F)F)(C(F)(F)F)N=C(c3ccc(C)cc3)N12,-3.53%
15,CC1=CC(C)C2C(=O)N(c3ccc[n+](C)c3)C(=O)C2C1 (stereo not shown),-5%
16,c1ccc2c(c1)CCCC2Nc1ncnc2c1nc1n2CCCCC1 (stereo not shown),-6.04%
17,CC(CCN1CCN(c2ccccc2F)CC1)c1ccccc1 (stereo not shown),-3.57%
18,CCCCN1CCCC1C(O)(c1ccccc1)c1ccccc1 (stereo not shown),-0.687%
19,COC(=O)C1=C(C)N(CC2CCCO2)C(=O)/C1=C\c1cc(C)n(-c2ccccc2Cl)c1C (stereo not shown),-3.41%
20,Cc1cc(Cl)nc2cc(O)ccc12,-2.88%
21,CCCOc1ccc(CC(=O)O)cc1OC,-2.87%
22,C=CCOc1ccc(CNc2ccc3[nH]c(O)nc3c2)cc1OC,6.98%
23,CCCOc1ccc(C2C(C(=O)OC)=CN(Cc3ccc(Cl)cc3)C=C2C(=O)OC)cc1,-6.93%
24,CN1CCN(CCCNC(=O)Cc2cn(C)c3ccccc23)CC1,-3.87%
25,CCCNC(=O)CCc1cn(Cc2ccccc2C)c2ccccc12,1.95%
26,CC(C)Oc1ccc(-c2nc3s/c(=C\c4ccco4)c(=O)n3n2)cc1,-6.86%

row,Structure (SMILES),% Inhibition @ 10 uM
1,O=C(O)c1ccc(S(=O)(=O)N2CCCC2)cc1,0.0345%
2,CCN1CCN(C(=O)c2sc3nc(-c4ccc(F)cc4)cn3c2C)CC1,3.19%
3,CC1(C)CC(C2N3CC4(C)CN2CC(C)(C3)C4=O)CCO1 (stereo not shown),-1.33%
4,CCOC(=O)c1oc2ccccc2c1CN1CCN(C(=O)c2ccccc2)CC1,5.65%
5,Cc1cccc(CCNC(=O)C2CCC(CNS(=O)(=O)c3cccc4cccnc34)CC2)c1 (stereo not shown),-4.21%
6,Cc1cc(=O)n2ccc([N+](=O)[O-])c(O)c2n1,-5.5%
7,COc1cc(-c2nn3c(-c4ccccc4)nnc3s2)cc(OC)c1OC,17.2%
8,COc1ccc(Nc2nc(Cl)nc(NCc3ccco3)n2)cc1,-6.62%
9,Cc1cc(O)c(C(=O)/C=C/c2ccccc2O)c(=O)o1,6.08%
10,Cc1ccc(-c2nnc3n(Cc4ccccc4)c(=O)c4ccccc4n23)s1,-7.29%
11,Cc1ccc(-n2nc3c(N4CCC(C(=O)NCCN5CCN(C)CC5)CC4)nnc(C)c3c2C)cc1,4.23%
12,CCc1cc(C(N)=O)c(NC(=O)c2ccc(OC)cc2)s1,-2.19%
13,COc1cc(F)c(C[C@H](NC(=O)c2ccc(-c3cc(C(=O)O)ccc3Cl)cc2)C(=O)NCC#N)c(F)c1,-4.82%
14,COc1cc(C(=O)Nc2ccc(NC(C)=O)cc2)cc(OC)c1OC,-5.23%
15,O=C(O)CCCC(=O)Nc1nc(-c2ccc(F)cc2F)cs1,7.17%
16,CN(C)CCCN1C(=O)C(O)=C(C(=O)c2ccccc2)C1c1ccccc1 (stereo not shown),0.163%
17,COc1ccccc1C(=O)Nc1ncccc1C,-0.425%
18,COc1cccc(C(=O)N2CCN(C(=O)CCC3CCCC3)CC2)c1,0.587%
19,CC(C)CCNC(=O)CCc1nnc2n(C)c(=O)c3ccccc3n12,-2.42%
20,CCOc1ccccc1OCc1nn2c(-c3ccccc3Br)nnc2s1,-0.45%
21,CCOc1cc(C=C2C(=O)NC(=O)NC2=O)cc(Cl)c1OCc1ccccc1Cl,-8.57%
22,Cc1cc(-c2ccccc2)nc2cc(C(=O)N3CCN(c4ccccc4)CC3)nn12,6.39%
23,O=C(O)CCCC(=O)Nc1ccc(NC(=O)c2ccco2)cc1,-4.76%
24,CN(C)CCN(C)Cc1cccc2ccccc12,-1.07%
25,CCc1ccc(C2CC(=O)N3CN(C4CCCCC4)CSC3=C2C#N)cc1 (stereo not shown),64.5%
26,CC1=CN2C(=N)/C(=C/c3ccc(SCc4ccco4)o3)C(=O)N=C2S1,19.8%

row,Structure (SMILES),% Inhibition @ 10 uM
1,Oc1ccc(Br)cc1/C=N/c1cccc(Nc2nc(N3CCOCC3)nc(N(c3ccccc3)c3ccccc3)n2)c1,-1.8%
2,Cc1cccc(-c2nc(S(=O)(=O)c3ccc(Cl)cc3)c(N3CCOCC3)o2)c1,3.74%
3,COc1cccc(C(=O)NC(C)c2ccc(C)cc2C)c1 (stereo not shown),-4.89%
4,CC(C)OCCCNC(=O)C1CCN(c2nn3cc(-c4ccc(F)cc4)nc3s2)CC1,0.822%
5,O=C(Nc1nc2ccccc2[nH]1)c1ccccc1O,-5.04%
6,CCCCc1nnc(NC(=O)Cc2csc(C)n2)s1,-4.54%
7,COc1ccc(/C=C/C(=O)NCc2ccc(Cl)cc2)cc1,-6.12%
8,CC1CCN(c2nc(-c3ccc(F)cc3)cc(C(F)(F)F)n2)CC1,4.79%
9,CC(=O)Nc1ccc(-c2cc(-c3ccccc3)nc(-c3ccccc3)n2)cc1,2.55%
10,CCCCCCN1N=C(C)C(C(=O)c2ccc(Cl)cc2)C1=O (stereo not shown),-3.26%
11,Cc1cc(OCC(=O)Nc2ccc(F)cc2)ccc1Br,-2.78%
12,COc1ccc(CC(=O)Nc2ccc(Br)c(Cl)c2)cc1,-1.17%
13,Cn1cccc1CNCCc1c[nH]c2ccccc12,-1.15%
14,CCc1nnc(O)c2cc3sccc3n12,1.72%
15,CCN(CC)S(=O)(=O)c1cc(C(=O)NCc2ccccc2)ccc1C,-1.77%
16,CN(C)c1ccc(C(=O)CC2(O)C(=O)N(C)c3ccccc32)cc1 (stereo not shown),-5.9%
17,COc1ccc2c(c1)c(C(C)=O)c(C)n2-c1ccccc1,-2.42%
18,Cc1cc(C(=O)Nc2ccc3ccccc3c2)oc1C,3.24%
19,Cc1ccc(CNC(=O)C2CCCN(S(=O)(=O)c3cccc4nonc34)C2)cc1 (stereo not shown),-0.668%
20,O=C(CCn1c(=O)c2cccn2c2cccnc21)NCc1ccc2c(c1)OCO2,4.39%
21,CC(C)(C)c1ccc(S(=O)(=O)c2cc3cc(F)cc(F)c3oc2=O)cc1,-4.97%
22,CCN(CC)c1nc(Cl)nc(Cl)n1,2.3%
23,Cn1ncc(Br)c1C(=O)Nc1cnn(Cc2ccc(F)cc2)c1,0.214%
24,CCN(CC)CCCNC(=O)c1c(-c2ccccc2)noc1C,3.72%
25,COc1ccc(-c2cc(C(F)F)n3ncc(C(=O)NCc4ccc5c(c4)OCO5)c3n2)cc1,-8.55%
26,c1ccc(CN2CCN(C3C4CC5CC(C4)CC3C5)CC2)cc1 (stereo not shown),2.7%

row,Structure (SMILES),% Inhibition @ 10 uM
1,C/C(=N\O)c1cc([N+](=O)[O-])c2ccccc2c1O,3.16%
2,CC1=CSC2=NC(=O)/C(=C/c3cc(C)n(-c4ccccc4C)c3C)C(=N)N12,0.565%
3,COc1ccc2c(CNCc3ccccc3F)c(C(=O)O)[nH]c2c1,-4.5%
4,Cc1cc(C)c2nc(N3CCC(C(=O)NCCCN4CCCC4=O)CC3)sc2c1,0.137%
5,Cc1nn(C(C)C(=O)N2CCCC2)c(=O)c2nn(-c3ccccc3)c(C)c12 (stereo not shown),-1.76%
6,CCOc1cccc2sc(Nc3nc4ccc(C(=O)OC)cc4s3)nc12,-1.28%
7,CN1CCN(Cc2c(NC(=O)c3ccc(F)cc3)sc3c2CCCC3)CC1,-1.04%
8,CC(C)CC(C(=O)NCC#N)c1csc(Nc2ccncc2)n1 (stereo not shown),3.19%
9,Cc1ccc(-c2cc(C(=O)NC(C)C)c3ccccc3n2)cc1,-1.84%
10,CC(C)Oc1ccc(CSc2nncn2N)cc1,0.484%
11,COc1cc(-n2cnnn2)ccc1S(=O)(=O)N1CCCCC1,-2.84%
12,CCCC1CCc2c(sc(NC(=O)CC(C)C)c2C(N)=O)C1 (stereo not shown),4.22%
13,Cc1cc(NC(=O)CC(c2ccccc2)c2ccccc2)no1,-0.598%
14,CCc1ccc(/C=C2/C(=N)N3C(=NC2=O)SN=C3S(=O)(=O)C(C)C)cc1,5.06%
15,CC(=O)N1CCC(NC2CCCCCC2)CC1,-1.78%
16,CC1CC(C)(C)NC(C)c2ccccc21 (stereo not shown),5.65%
17,CN(C)CCN(C)CC1CC2C=CC1C2 (stereo not shown),-4.14%
18,Oc1nncc(N2CCCC2)c1Cl,-3.78%
19,CS(=O)(=O)N(CC(=O)Nc1ccccc1)c1ccc(F)cc1,-5%
20,COc1cc(Br)c(/C=C2/C(=O)N=C(N)N2C)cc1OC,-6.44%
21,Cc1cc(C)c(S(=O)(=O)n2cnc3ccccc32)c(C)c1,-4.58%
22,Cc1cccc(Cl)c1OCCCN1CCOCC1,1.52%
23,COc1ccc(CN2CCCC(C)C2)c(OC)c1C (stereo not shown),-3.27%
24,CN(Cc1ccccc1)C(=O)C1CCC(CNS(=O)(=O)c2cccs2)CC1 (stereo not shown),-5.2%
25,Cc1cc2oc(C(=O)N(Cc3ccccc3F)C3CCS(=O)(=O)C3)c(C)c2cc1C (stereo not shown),3.62%
